The source gives no read counts; variants with many changes may rest on few reads.
B1: LINE1-mini (parent)
chain: GGCAGAGCUCAACACAGCGUGGCAAAGUGGCUGUGGCUAGACUGCC

Variants of: B1
Assay: self-cleavage, relative activity (ratio to wild type); higher = more cleavage; in vitro, sequencing; the parent is a self-cleaving ribozyme

| Variant | self-cleavage |
| --- | --- |
| C13U C15G U20G | 0.01 |
| C13U A14U G35U | 0.23 |
| C13G A16C G29A A41C | 0.07 |
| A14C G22U A26C G29U U43A | 0.66 |
| C13U U20C U28A G44C | 0.02 |
| C13G A25C C37G | 0.02 |
| A14C A16U U32G U34C G40A | 0.03 |
| A14G C18G G21U G22U A26C | 0.2 |
| C13U A14U A16C G30C | 0.13 |
| C13A U20C U34C C37A | 0.03 |
| C13U G22U U34A | 0.02 |
| C13U G22U U34G | 0 |
| C13G C15G A16C C42A G44U C45G | 0.04 |
| C13U U20A C46A | 0.53 |
| C13U A16G A26C C46U | 0.09 |
| A14C C18A U43C | 0.02 |
| C13G G27U G36C G40A | 0.04 |
| C13U A25C G29A G44U | 0.06 |
| C13A U20C G35A | 0.06 |
| A14C C23A G44U | 0.12 |
| A14G A16C U28C C31A U38C C45G | 0.01 |
| A14G C15A G17A G21A A26U G27A G33A A39U | 0.02 |
| A14C A16G G29A C31U | 0.04 |
| C13U U20G G22C | 0.06 |

| Variant | self-cleavage |
| --- | --- |
| A14G C18A G22A | 1.11 |
| C13U G29A G33C G36A A41U C42A | 0.03 |
| C13U C23A A39G | 0.1 |
| C13G C18A G21C G36U | 0.03 |
| A14C U20A A26U C37U U38C | 0.04 |
| A14C G35U U43A | 0.02 |
| C13U C23A G35U G36U G40A C46A | 0.19 |
| C13U G21U G33C | 0.04 |
| C13U U32C C42A | 0.22 |
| C13G A16G G44U | 0.04 |
| C13G C23U C31U G33C | 0.02 |
| A14G A24C U43A | 0.01 |
| C13U U20C A25G C46A | 0.03 |
| C13U G17C C46A | 0.05 |
| C13G G29U C42G | 0 |
| C13G A16C G27A U38A | 0.15 |
| C13G G27C G35U | 0.41 |
| A14G A16G G40A | 0.04 |
| C13A U20A A24U G27U U43A | 0.02 |
| C13G G19U G33A U34G C42U U43C | 0.01 |
| A14C C15U G21A | 0.05 |
| C13U A14U C18G G36C | 0.18 |
| C13U C31G G35U | 0.24 |
| C13U G19A A25C U32C G33A A41U C42A | 0.09 |

| Variant | self-cleavage |
| --- | --- |
| C13U G17A U20A C23U U38A | 0.03 |
| C13U A14C G36A | 0.49 |
| A14C G27A A41G C45A | 0.06 |
| A14C G17A U38C | 0.01 |
| C13U A25G G30C G35C C45A | 0.03 |
| C13U G19C A26C G40U | 0.02 |
| A14C A16C U28A | 0.07 |
| C13U G22U A25U | 0.11 |
| A14C G29U G30A | 0.16 |
| A14C G17C G36A | 0.09 |
| C13G A16C G17U | 0.13 |
| C13U G22A A41C | 0.04 |
| A14C C15U A16G | 0.05 |
| C13G A14G G33C | 0.04 |
| C13U U34C G36C | 0.04 |
| C13G C18U G36U U43A | 0.01 |
| A14C G17U U20C G21U C45A | 0.14 |
| C13U G36U C46U | 0.04 |
| C13U G27U U32C | 0.07 |
| C13U G30A C31U | 0.03 |
| C13U G17C G30U | 0.02 |
| A14C C15A C31U A41U | 0.01 |
| C13U G21A U28C U38A | 0.42 |
| A14C U43A C46U | 0.02 |

| Variant | self-cleavage |
| --- | --- |
| A14C A25C G29A C37U | 0 |
| C13G C18U U34A A39U | 0.06 |
| C13U G33C C42U | 0.02 |
| C13A G36U C46U | 0.35 |
| C13G A16C G21A G35C C42G C45A | 0.08 |
| C13G A14U U34A | 0.01 |
| C13G U20G U38G C46A | 0.01 |
| C13G U43A C45U | 0.04 |
| A14C U20C A24C A39U C45A | 0.04 |
| A14C C23G C42A | 0.02 |
| C13U G17U A41U C42A | 0 |
| C13A G40U C46A | 0.03 |
| A14C A25G A26C U32C | 0.01 |
| C13G U28G C42U | 0.11 |
| A14C A16C U34A A39C | 0.02 |
| A14C G17U G40C | 0 |
| C13G U20A A26G U32A C42A | 0.02 |
| C13U C15G U20G G22C G27C C37A | 0.01 |
| C13U A16U U20C A26U A41C | 0.11 |
| A14G C18G C23U G40C | 0.07 |
| C13G A14U C31A G40A C42G | 0.02 |
| C13G A14U C42U | 0.05 |
| C13G G27A G30U | 0.01 |
| C13U G17C C37U | 0.07 |

| Variant | self-cleavage |
| --- | --- |
| A14C G17U G30U | 0.05 |
| C13U G21A A24C G36C | 0.04 |
| C13U C37G C42A | 0.06 |
| A14C G44U C45U | 0.03 |
| C13U A14U C18U A24C U28G | 0.02 |
| A14G A16G G33U | 0.01 |
| C13U G19C A39U | 0.13 |
| C13U A16G C18A G27U U34C | 0.01 |
| A14C C18G C46G | 0.02 |
| C13A U20C C42A | 0.05 |
| A14G A25G A26U G40C C46U | 0.01 |
| A14G C15G C23A A26G C45A | 0.02 |
| C13G G21U U34G | 0.03 |
| C13U G17A C31G | 0.06 |
| A14C A16C G19C U32G | 0.03 |
| C13G C31G C42U | 0.09 |
| A14C A24G A26U G33U G40C | 0.02 |
| C13G G17C G29C | 0.11 |
| A14C G19U C31A | 0.01 |
| C13G G36U C46A | 0.2 |
| C13G A26U C42G | 0.08 |
| C13U C23G U28A | 0.04 |
| A14C U28G U38G U43C | 0.09 |
| C13G A16G U38G | 0 |

| Variant | self-cleavage |
| --- | --- |
| C13U C31U U32G | 0.24 |
| C13A U34G C45U | 0.01 |
| A14G C23A C46G | 0.59 |
| C13U C23U A25G C31G G35U G40A | 0.04 |
| C13U G21U A24U | 0.1 |
| C13G A16G G21A C31U | 0.03 |
| C13G G19A A25U | 0.06 |
| C13G C18U U34G | 0 |
| C13U C15A G17A | 0.01 |
| C13U C15A G17U | 0.04 |
| A14C G19C A39U | 0.03 |
| C13U C31U C37U U38C G44A | 0.01 |
| C13U G17C C31A | 0.02 |
| A14C G40U A41U | 0.05 |
| C13G A25U G33C A41G U43C | 0.02 |
| C13U G21C G35U | 0.12 |
| C13U G33U A41U | 0.07 |
| A14G A25C G40A | 0.03 |
| C13U C18G G19U U20C A24G U28C | 0.01 |
| C13U G40C C42G | 0.05 |
| A14G C15U A25C G33U | 0.01 |
| C13G C15G G36A G44C | 0.06 |
| C13U U28G U32A A39G U43A | 0.02 |
| C13U A16U G21A | 0.06 |

| Variant | self-cleavage |
| --- | --- |
| C13G A16G G17A | 0.06 |
| C13U A25G C42G | 0.03 |
| A14C C15G A25U G30U C42U | 0.01 |
| A14C U20G G44A | 0.06 |
| C13G A26G G27C G44U | 0.04 |
| A14C G22A C37A A39U C42G | 0 |
| A14C C15A G21C G33A | 0.01 |
| C13G U20C A26G A39C | 0.04 |
| C13G A16C G17A G29U C45A | 0.04 |
| C13U U20C G36U | 0.03 |
| C13U A16C U28C G33A | 0.05 |
| A14C U20A U28A | 0.02 |
| C13U G21A U28C C37U G40U C42G C46U | 0.03 |
| C13U C15U A16G G21U U32A | 0.06 |
| C13G U20A G29C C42G | 0.04 |
| C13U G17C C23U A26G | 0.04 |
| A14C G17C U34G | 0.13 |
| A14C G17U C31A | 0.31 |
| C13G G29U G30C G33C | 0.21 |
| C13U C15A G27A | 0.03 |
| C13U G17A C46U | 0.06 |
| A14C G19C G21C | 0.01 |
| A14C A25U U32C G36U C45G C46U | 0.02 |

Source: the RNAGym collection of RNA variant scans (doi:10.7554/elife.90254)
